Target: T1, sodium-phosphate cotransporter (Homo sapiens, UniProt Q8WUM9)
T1 sequence (Q8WUM9 1-679): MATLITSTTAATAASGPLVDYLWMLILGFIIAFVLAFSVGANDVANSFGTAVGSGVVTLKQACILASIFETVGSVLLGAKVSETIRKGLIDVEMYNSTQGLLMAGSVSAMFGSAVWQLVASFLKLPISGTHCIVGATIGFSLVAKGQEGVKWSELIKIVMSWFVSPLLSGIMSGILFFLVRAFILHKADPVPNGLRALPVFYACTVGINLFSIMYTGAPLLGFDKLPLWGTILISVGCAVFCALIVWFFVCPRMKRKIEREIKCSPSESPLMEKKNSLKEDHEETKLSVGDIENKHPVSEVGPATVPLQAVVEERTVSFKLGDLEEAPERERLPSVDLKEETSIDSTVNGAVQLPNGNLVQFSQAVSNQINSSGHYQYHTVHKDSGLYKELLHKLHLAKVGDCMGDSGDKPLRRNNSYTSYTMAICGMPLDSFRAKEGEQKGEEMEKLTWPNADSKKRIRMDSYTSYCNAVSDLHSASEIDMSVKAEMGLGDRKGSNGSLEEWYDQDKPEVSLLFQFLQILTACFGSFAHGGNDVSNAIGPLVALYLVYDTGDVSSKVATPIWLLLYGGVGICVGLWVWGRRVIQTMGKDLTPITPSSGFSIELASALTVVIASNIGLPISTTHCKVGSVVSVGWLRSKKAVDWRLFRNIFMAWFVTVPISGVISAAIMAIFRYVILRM
Assay: Na-dependent 32PO4 influx into erythroleukemic K562 cells
Type: cell-based
Design: influx into the erythroleukemic line of K562 cells was measured; endogenous in cells; host or cells: K562 erythroleukemic cells

activation of phosphate influx	Compound
no activation	[Rb+] [Rb]
no activation	[K+] [K]

Source: patent US20040002079A1, “Sodium-phosphate cotransporter in lithium therapy for the treatment of mental illness” (priority 1998, published 2004)
